Assay results from the antibiotic and cytotoxicity screens of Wong et al. (2023).
The list shows a part of the results.

test system: S. aureus RN4220; assay: growth inhibition call (relative growth <= 0.2); settings: 50 µM

Growth inhibition call, inactive:
C[C@@H]1CCCCO[C@@H](CN(C)C(=O)Nc2ccc3c(c2)OCO3)[C@H](C)CN([C@@H](C)CO)C(=O)c2cc(NC(=O)C3CCCCC3)ccc2O1, C[C@@H]1CN([C@H](C)CO)C(=O)Cc2cc(NC(=O)Nc3ccc4c(c3)OCO4)ccc2O[C@H]1CN(C)Cc1ccc(Cl)c(Cl)c1, COc1ccc2c3c(n(c2c1)C)[C@H](CO)N(C[C@]13CN(C1)C(=O)c1ccncc1)C(=O)C1CCOCC1, COc1ccc(S(=O)(=O)Nc2ccc3c(c2)[C@@H]2C[C@@H](CC(=O)NCC4CC4)O[C@H](CO)[C@@H]2O3)cc1, C[C@H](CO)N1C[C@H](C)[C@H](CN(C)C(=O)[C@H](C)c2ccccc2)OCc2ccccc2-c2c(n(C)c3ccccc23)C1=O, Cc1ccc(S(=O)(=O)Nc2ccc3c(c2)CC(=O)N([C@@H](C)CO)C[C@@H](C)[C@@H](CN(C)C(=O)Nc2ccc(C(F)(F)F)cc2)O3)cc1, Cc1cc(C(=O)Nc2cccc3c2O[C@@H](CN(C)Cc2ccc4c(c2)OCO4)[C@H](C)CN([C@@H](C)CO)C3=O)n(C)n1, COc1ccc2c3c([nH]c2c1)[C@H](CO)N(C[C@]13CN(C)C1)C(=O)CN1CCOCC1, C[C@@H]1CN([C@H](C)CO)C(=O)c2cc(NC(=O)CCCCCC(=O)Nc3ccccc3N)ccc2O[C@H]1CN(C)C(=O)Nc1ccc(F)cc1, Nc1nc(=O)n([C@@H]2O[C@H](CO)[C@@H](O)[C@H]2O)cc1CO, C[C@@H]1CCCCO[C@H](CN(C)Cc2ccc(C(F)(F)F)cc2)[C@H](C)CN([C@H](C)CO)C(=O)c2cc(NS(=O)(=O)c3cccs3)ccc2O1, C[N+](C)(C)CCCCNC(=O)[C@H]1C[C@H]2C(=O)N[C@@H](CCCC[N+](C)(C)C)C(=O)N2[C@H]1c1cccc(OCCO)c1, O=C1NC(=S)NC12CCCCC2, C[C@H](CO)N1C[C@H](C)[C@H](CN(C)Cc2ccncc2)OCCCC[C@H](C)Oc2ccc(NC(=O)NC3CCCCC3)cc2C1=O, C[C@@H]1CN([C@@H](C)CO)C(=O)Cc2cc(NC(=O)CCN3CCOCC3)ccc2O[C@H]1CN(C)Cc1ccc(C(=O)O)cc1, CCN1[C@@H]2c3ccc(-c4ccncc4)c(=O)n3C[C@@H]2[C@@H](CO)[C@@H]1C(=O)NCCc1cn(C)cn1, C[C@@H]1CN([C@@H](C)CO)C(=O)c2ccccc2-c2ccccc2CO[C@@H]1CN(C)C(=O)N[C@H](C)c1ccccc1, C[C@@H]1CN([C@@H](C)CO)C(=O)c2cc(/C=C/c3ccccc3)cnc2O[C@@H]1CN(C)C(=O)C1CCOCC1, C[C@@H]1CN([C@@H](C)CO)C(=O)Cc2cc(NC(=O)Nc3ccc(F)cc3)ccc2O[C@@H]1CN(C)Cc1ccc(Cl)c(Cl)c1, C[C@H](CO)N1C[C@H](C)[C@@H](CN(C)C(=O)Cc2ccccn2)Oc2ncc(-c3cccc(C(=O)N(C)C)c3)cc2C1=O, CCCN(C)C[C@@H]1OCCCC[C@H](C)Oc2ccc(NS(C)(=O)=O)cc2C(=O)N([C@@H](C)CO)C[C@H]1C, C[C@H]1CCCCO[C@@H](CN(C)CC2CCCCC2)[C@@H](C)CN([C@@H](C)CO)C(=O)c2cc(NC(=O)c3ccncc3)ccc2O1, Cc1ccc(S(=O)(=O)N(C)C[C@@H]2OCCCC[C@H](C)Oc3ccc(NC(=O)Nc4ccccc4)cc3C(=O)N([C@H](C)CO)C[C@H]2C)cc1, CN(Cc1ccc(C(C)(C)C)cc1)Cc1cccc2ccccc12.Cl, CN1C[C@@H](CO)Oc2ccccc21, CC(C)Cc1cc(CN)on1, C[C@@H]1CN([C@H](C)CO)C(=O)c2ccccc2-c2ccccc2CO[C@H]1CN(C)C(=O)Nc1cccc(C(F)(F)F)c1, C[C@H](CO)N1C[C@H](C)[C@@H](CN(C)S(=O)(=O)c2ccc(F)cc2)Oc2ccc(NS(C)(=O)=O)cc2CC1=O, C[C@H](CO)N1C[C@H](C)[C@@H](CN(C)Cc2ccc(Cl)c(Cl)c2)OCCCC[C@H](C)Oc2ccc(NC(=O)Nc3cccc4ccccc34)cc2C1=O, C[C@H](CO)N1C[C@H](C)[C@@H](CN(C)S(=O)(=O)c2ccc(Oc3ccccc3)cc2)OCc2cnnn2CCCC1=O, Cc1ccc(S(=O)(=O)N(C)C[C@@H]2Oc3ccc(NC(=O)c4ccncc4)cc3C(=O)N([C@H](C)CO)C[C@H]2C)cc1, O=[N+]([O-])c1ccc(/C=C/CN(C/C=C/c2ccc([N+](=O)[O-])cc2)CCCCNS(=O)(=O)c2cccc3cnccc23)cc1, CCC(=O)Nc1ccc2c(c1)OC[C@@H](C)N(S(=O)(=O)c1cn(C)cn1)C[C@@H](C)[C@H](OC)CN(C)C2=O, CC1(C)S[C@H]2[C@@H](NC(=O)[C@@H](N)c3ccccc3)C(=O)N2[C@@H]1C(=O)O, COc1ccc(COC[C@]23N=C4SCc5ccccc5C(=O)N4[C@H](c4ccccc4O2)[C@H]3CO[Si](C)(C)C(C)(C)C)cc1, C[C@@H]1CN([C@H](C)CO)C(=O)c2cccc(NC(=O)c3cnccn3)c2O[C@H]1CN(C)Cc1ccc2c(c1)OCO2, C[C@@H]1CCCCO[C@@H](CN(C)S(=O)(=O)c2ccc(F)cc2)[C@@H](C)CN([C@H](C)CO)C(=O)c2cc(NC(=O)Nc3ccc(F)cc3)ccc2O1, CCCC(=O)Nc1ccc2c(c1)OC[C@@H](C)N(Cc1ccc(-c3ccccn3)cc1)C[C@H](C)[C@H](OC)CN(C)C2=O, C[C@@H]1CN([C@H](C)CO)C(=O)c2cc(NC(=O)NC3CCCCC3)ccc2O[C@@H](C)CCCCO[C@@H]1CN(C)C(=O)CCC(F)(F)F

Growth inhibition call, active:
CNC(CC(C)C)C(=O)NC1C(=O)NC(CC(N)=O)C(=O)NC2C(=O)NC3C(=O)NC(C(=O)NC(C(=O)O)c4cc(O)cc(O)c4-c4cc3ccc4O)C(O)c3ccc(c(Cl)c3)Oc3cc2cc(c3OC2OC(CO)C(O)C(O)C2OC2CC(C)(N)C(O)C(C)O2)Oc2ccc(cc2Cl)C1O.Cl (stereo not given)
